Source: the supplement of paper PMC10338343
± gives the standard deviation. The full ranking holds about 5,500 sequences; the median of “pre-steady-state target cleavage rate” is about 0.1, and the highest 2% start at about 0.64. This is a selection; strong and weak results do not stand in their true shares.

These sequences were tested on MIWI (PIWIL1) piRISC loaded with piRNA #2 (30 nt) (assay: pre-steady-state target cleavage rate (min^-1); MIWI and MILI are mouse PIWI proteins and EfPiwi is from a freshwater sponge; tags in brackets are library labels; higher = faster piRNA-guided slicing of the target). Conditions: guide: piRNA #2 5'p-UUAGGUAACCCAGUAGAUCCAGAGGAAUUC; auxiliary factor: 500 nM mouse GTSF1.
How it was run: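 In Cleave-'n-Seq, a transcribed, DNA-blocked target RNA library (0.1 nM) was combined with 1 nM active affinity-purified piRISC bearing one synthetic guide, with or without 500 nM GTSF1 partner protein. Reactions ran in HEPES–potassium acetate buffer at 33 °C for 0–8 or 0–960 min. Uncleaved targets were sequenced and normalised to depth and to weakly complementary targets, three trials were pooled, and k3 was capped at 0.0001 min^-1. The pre-steady-state cleavage rate was obtained by fitting a burst-and-steady-state model.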

Sequence	pre-steady-state target cleavage rate
GAAUUCCUCUGGAUCUACUGGGUAACGUAA	0.234 ± 0.039
CUAGUCCUCUGGAUCUACUGGGUUACCUAA	0.145 ± 0.036
CUUAACCUCUCGAUCUAGUGGGUUACCUAA	0.267 ± 0.02
CUUAUCCUCUGGAUCAUCUGGGUUACCUAA	0.246 ± 0.028
GAAUUCCCCUGGAUCUACUGGGUUACCUAA	0.436 ± 0.034
GAAUUCCUCUGGAUCUACUGGGUUACCUUAA	0.243 ± 0.043
GAUUUCCUCUGGAUCUACUGGGUUACCUUA	0.142 ± 0.037
GAAUUCCUCAUGGAUCUACUGGGUUACCUAA	0.376 ± 0.044
CUAUUCCUCUGGAUCUACUGGGGUACCUAA	0.138 ± 0.037
CUUAAGCUCUGCAUCUACAGGGUUACCUAA	0.175 ± 0.015
CAAUUCGUCUGGUUCUACUGGGUUACCUAA	0.557 ± 0.063
CUUAAGGACUGGAUCUUCUGGGUUACCUAA	0.0593 ± 0.037
CUUAAGCUUCUGGAUCUACUGGGUUACCUAA	0.166 ± 0.025
CUAUUCCUCUGGAACUACUGGGAUACCUAA	0.145 ± 0.031
CUUAAGGACUGGAUCUACUGGGUUACCUAA [g2:g22:cont:t1A]	0.157 ± 0.052
CUUAAGGUCUGGUUCUACUGGCUUACCUAA	0.0639 ± 0.016
GAAAUCCUCUGGAUCUACUGGCUUACCUAA	0.0842 ± 0.017
CUUAUCCUCUGGAUCUACGGGGUUACCUAA	0.0689 ± 0.0052
CUUAAGGAGAGGAUCUGCUGGGUUACCUAA	0.00675 ± 0.0043
CAAUUCCACAGGAUCUACUGGGUUACCUAA	0.538 ± 0.067
CUUAUCCUCUGGAUCAACUGCGUUACCUAA	0.427 ± 0.06
CUUAUCCUCUGGAUCUACUGGGUUAGGUAA	0.0789 ± 0.024
CUUAAGGUCUGGAUCUACUGGGAUAGCUAA	0.0376 ± 0.016
CUUAAGGAGUGGAUCUACUGGGUUGCCUAA	0.0417 ± 0.011

Sequence	pre-steady-state target cleavage rate
CUUUUGCUCUGGAUCUACUGCGUUACCUAA	0.355 ± 0.037
CUUAAGGUCUGGAUGCUACUGGGUUACCUAA	0.121 ± 0.032
CUUAAGGAGAGGAUCUACUGGGUUACCAAA	0.00514 ± 0.0034
CAAUUCCUAUGGAUCUACUGGGUUACCUAA	0.544 ± 0.053
CUUAACCUCUGGAUCUACUGCGUUACCUAA	0.37 ± 0.049
GAAUUCCACUGGAUCUUCUGGGUUACCUAA	0.572 ± 0.051
CUUUUGCUCUGGAUCUACAGGGUUACCUAA	0.118 ± 0.011
CUUAAGCUCUGGAUCUUCUGGGAUACCUAA	0.0481 ± 0.0094
CUUUUCCUCUGGAUCAACUGCGUUACCUAA	0.474 ± 0.056
CUAUUCCUCUGGAUCUACUGGGUAUACCUAA	0.417 ± 0.05
CUAAUCCUCUGGAUCUACUGCGUUACCUAA	0.518 ± 0.048
CUUAAGCUCUCGAUCUACUGGGUAACCUAA	0.106 ± 0.012
CUUAUCCUCUCGAUCUACUGCGUUACCUAA	0.636 ± 0.048
GAUUUCCUCUGGAUCUACUGGCUUACCUAA	0.0695 ± 0.014
CUUAAGGACUGGAUUCUACUGGGUUACCUAA	0.0274 ± 0.024
GAAUAGCUCUGGAUCUACUGGGUUACCUAA	0.0533 ± 0.02
CUUAUCCUCUGGAUCUACUGGCUUACGUAA	0.0964 ± 0.024
CAAUUCCUCUGGAUCUACUCGGUAACCUAA	0.00908 ± 0.0072
CUUAAGGACAGGAUCUACUGGGUUACCUAA	0.107 ± 0.032
GAAUUCCUCUGGAUCUACUGGAUUACCUAA	0.367 ± 0.039
CUUAAGGAGUGGAUCUACAGGGUUACCUAA	0.0257 ± 0.0056
CUUAUGCUCUGGAUCUACUGGGUUAGCUAA	0.256 ± 0.035
CUUAACCUCUGGAUCUACUGGGUUACCAA	0.187 ± 0.031
CUUAAGGUGUGGAUGUACUGGGUUACCUAA	0.0931 ± 0.031

Sequence	pre-steady-state target cleavage rate
CAAUUCCUGAGGAUCUACUGGGUUACCUAA	0.437 ± 0.044
CUUAACCACUGCAUCUACUGGGUUACCUAA	0.27 ± 0.028
CUUAAGCUCUGGAUCUACUGGCUUAGCUAA	0.00714 ± 0.004
GAAUUGCUCUGGAUCUACUGGGUUACGUAA	0.399 ± 0.069
CUUAAGGAGACCUAGAACUGGCGUUACCUAA	0.00292 ± 0.0024
CUAUUCCUGUGGAUCUAGUGGGUUACCUAA	0.184 ± 0.021
CUAUUCCUCUGGAUCUACUGGGUUGACCUAA	0.408 ± 0.043
CUUAAGGACUGGAUCUACUGGGUUACCGUAA	0.0402 ± 0.032
CUUUACCUCUGGUUCUACUGGGUUACCUAA	0.514 ± 0.043
CUUAAGGACUGGAUCUAGUGGGUUUCCUAA	0.00587 ± 0.0039
CUUAAGGUCUGGAUCUACUGGGUUACCUA	0.177 ± 0.02
CAUUUCCUCUGGAUCUACUGGGAUACCUAA	0.345 ± 0.028
CUAUUCCUCUGGAUCUACUGGGAUACCUUA	0.176 ± 0.037
GAAUACCUCUGGAUCUACUGGGUUACCUUA	0.223 ± 0.048
CUUAAGGUCAGGAUCUACUCGGUUACCUAA	0.00885 ± 0.0061
CUUAUCCUCUGGAUCUACUGGGUUUGCUAA	0.265 ± 0.042
CUUAUCCUGUGGAUCUACUGGGUUACGUAA	0.524 ± 0.064
CUUAAGGUCUGCAUCUUCUGGGUUACCUAA	0.0747 ± 0.017
CAAUUACUCUGGAUCUACUGGGUUACCUAA	0.207 ± 0.048
CUUAAGGUCUGGAUCUACUGGGUUAACCUAA	0.199 ± 0.036
CUUUUCCUCUGGAUCUACUGGGUUACCUCAA	0.44 ± 0.065
GAAUUCCUCUGGAUCUGCUGGGUUACCUAA	0.213 ± 0.044
CUAUACCUCUGGAUCUACUGGGUUUCCUAA	0.429 ± 0.086
CAAUUCCUCUGGAACUACAGGGUUACCUAA	0.316 ± 0.031
